Laboratory results published in publication PMC6919601, “Identification of Plasmodium dipeptidyl aminopeptidase allosteric inhibitors by high throughput screening” (PLoS ONE, 2019).
The whole screen tested about 110,000 compounds, of which about 230 (0.21%) showed an effect of 50% or more. The list shows a part of the results.

Target: DPAP1 (Plasmodium falciparum, UniProt Q8IIJ9)
Assay: primary screen, percent inhibition; read by cleavage of a fluorogenic dipeptide substrate; higher = more effect of the substance
Parameters: species or system P. falciparum D10 trophozoite lysates; single well
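Note: 30 min substrate incubation versus DMSO and 10 µM JCP410 controls.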

DPAP1, sequence (Q8IIJ9 whole entry, looked up): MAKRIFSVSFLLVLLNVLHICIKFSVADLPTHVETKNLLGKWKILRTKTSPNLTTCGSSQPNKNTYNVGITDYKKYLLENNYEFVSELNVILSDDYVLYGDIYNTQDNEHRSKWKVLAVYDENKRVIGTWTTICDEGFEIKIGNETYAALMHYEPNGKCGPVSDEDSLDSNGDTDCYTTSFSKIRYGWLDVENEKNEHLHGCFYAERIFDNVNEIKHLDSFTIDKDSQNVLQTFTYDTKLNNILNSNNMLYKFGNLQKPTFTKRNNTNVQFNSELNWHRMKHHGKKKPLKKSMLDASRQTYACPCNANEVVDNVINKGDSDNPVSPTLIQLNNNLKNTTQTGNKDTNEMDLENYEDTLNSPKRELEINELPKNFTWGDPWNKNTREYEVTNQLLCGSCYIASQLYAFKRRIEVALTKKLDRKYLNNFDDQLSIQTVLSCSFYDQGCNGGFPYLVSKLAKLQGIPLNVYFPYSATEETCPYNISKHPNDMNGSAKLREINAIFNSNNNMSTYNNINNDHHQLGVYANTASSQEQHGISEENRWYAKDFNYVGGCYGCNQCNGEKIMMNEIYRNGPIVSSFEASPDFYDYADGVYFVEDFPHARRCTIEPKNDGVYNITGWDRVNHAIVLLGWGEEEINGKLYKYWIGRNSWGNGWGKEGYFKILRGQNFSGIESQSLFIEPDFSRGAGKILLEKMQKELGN

| Structure (SMILES) | % Inhibition @ 10 uM [%] |
| --- | --- |
| CCCC/N=C(N)/C(C(=O)c1ccc(OC)cc1)=C(/O)OCC | 2.57 |
| COc1cc(/C=C2\SC(c3ccc(C)cc3)=NC2=O)ccc1O | 2.92 |
| CC(=O)c1ccc(OCc2c(C)noc2C)cc1 | -1.49 |
| O=C(Nc1ccc(Br)cn1)c1cccc2ccccc12 | -10.8 |
| Cc1ccc(S(=O)(=O)Cc2nc(-c3ccc(C(=O)NCCc4cccs4)cc3)oc2C)cc1 | -3.84 |
| Cc1ccc2nc(NCCc3ccc(Cl)cc3)c3nnnn3c2c1 | 0.166 |
| O=c1oc2ccccc2cc1-c1csc(-c2cc3c(ccc4ccccc43)oc2=O)n1 | 0.605 |
| O=C(O)C1=NC2NC(c3ccccc3)=CC(=O)N2N1 (stereo not shown) | -3.09 |
| CC(C)c1[nH]nc2c1C(c1ccccc1)C(C#N)=C(N)O2 (stereo not shown) | 2.38 |
| CC(CCc1ccccc1)N1CCN(C/C=C/c2ccccc2)CC1 (stereo not shown) | 1.9 |
| Cc1c(C(=O)NCCCc2ccccc2)oc2c1-c1n[nH]cc1CC2 | -4.68 |
| COc1cc(C=C2C(=O)NC(=S)NC2=O)ccc1O | -6.22 |
| Nc1c([N+](=O)[O-])cc(Cl)c2c1C(=O)c1ccccc1C2=O | 2.7 |
| COc1ccc(-c2cc3c(=O)n(CC(=O)N4CCN(C)CC4)ncn3n2)cc1 | -1.08 |
| CCOC(=O)c1c(C)[nH]c(C)c1S(=O)(=O)NCC(=O)NC1CCCCC1 | -2.13 |
| Cc1nnc(SCCN2C(=O)c3ccccc3C2=O)nc1O | -1.43 |
| CCN(CC)C(=O)c1cc(-c2ccc(C)c(C)c2)[nH]n1 | -1.08 |
| COc1cc(C(=O)N2CCN(C(=O)c3cc(-c4ccc(C)c(C)c4)[nH]n3)CC2)cc(OC)c1OC | -0.546 |
| c1ccc(-c2nn3c(-c4ccccc4)nnc3s2)cc1 | 3.38 |
| Nc1cc(N)cc(-c2nc3ccccc3[nH]2)c1 | 8.06 |
| COc1ccc(Cl)cc1NC(=O)CCCC(=O)Nc1cc(Cl)ccc1OC | -3.63 |
| COc1ccccc1OCC(=O)N1CCc2ccccc21 | -4.01 |

| Structure (SMILES) | % Inhibition @ 10 uM [%] |
| --- | --- |
| COc1cccc(-c2nc(CS(=O)(=O)CC(=O)N3CCN(c4ccccn4)CC3)c(C)o2)c1 | -3.7 |
| Cc1cc(O)ccc1/N=C1/C=C(O)CC(C)(C)C1 | 4.7 |
| CCN(CC)S(=O)(=O)c1ccc(NC(=O)c2ccccc2)cc1 | -5.4 |
| Cc1n[nH]c(C)c1Nc1nc(-c2ccccc2)c(CC(=O)O)s1 | -1.11 |
| O=C(NCc1cccs1)c1oc(=O)c2ccccc2c1-c1ccccc1 | 0.208 |
| CCOC(=O)c1nc2nc(-c3cccs3)cc(C(F)(F)F)n2n1 | -3.52 |
| Cc1cccc(CNCc2c(C(=O)O)n(Cc3ccc(F)cc3Cl)c3cc(C)ccc23)c1 | -2.93 |
| Cc1cc2c(c(=O)o1)C(c1ccc(Cl)c(Cl)c1)C(C#N)=C(N)O2 (stereo not shown) | 1.54 |
| COc1cc2nc(S)nc(NCCc3ccc(S(N)(=O)=O)cc3)c2cc1OC | 4.01 |
| Cn1c(-c2ccc3c(c2)OCO3)cnc1NCc1ccccc1 | -2.91 |
| CC1(C(=O)O)CCC(C(=O)NCc2ccccc2)C1(C)C (stereo not shown) | 4.54 |
| COc1ccc(NC(=O)C2CCC(N3C(=O)C4C5CCC(C5)C4C3=O)CC2)cc1 (stereo not shown) | -4.68 |
| COCCNC(=O)C(C)n1sc2ccccc2c1=O (stereo not shown) | -6.64 |
| O=C(Nc1cccc(-c2nc3ncccc3o2)c1)c1ccccc1Br | 2.42 |
| CCc1ccc(C(=O)CSc2nc(C)cc(O)n2)cc1 | 2.36 |
| COC(=O)c1ccccc1S(=O)(=O)NC(=O)Nc1nc(N)nc(-c2ccccc2OC)n1 | 0.716 |
| CC(=O)c1cccc(NC(=O)C(C)Oc2ccc(Cl)cc2Cl)c1 (stereo not shown) | 1.72 |
| CCc1nnc2c(NCc3ccc4c(c3)OCO4)nc3ccccc3n12 | 3.58 |
| Cc1ccc(NC(=O)CN2C(=O)S/C(=C\c3sccc3C)C2=O)cc1 | -3.75 |
| Cc1ccc(C)c(N2C(=O)C3C4C=CC(CO)(O4)C3C2=O)c1 (stereo not shown) | -0.641 |
| Cc1ccc(CCNC(=O)c2cnc3ccc(S(=O)(=O)N4CCOCC4)cc3c2Cl)cc1 | 3.04 |
| C=CCn1c(=N)c(C(=O)NC(C)c2ccccc2)cc2c(=O)n3ccccc3nc21 (stereo not shown) | 3.6 |

| Structure (SMILES) | % Inhibition @ 10 uM [%] |
| --- | --- |
| COc1ccc(Br)cc1CN1CCN(c2ccccc2OC)CC1 | -1.98 |
| COc1ccc(OC)c(CNC2CCCC2)c1 | -5.2 |
| CC(C)NCC(=O)NC12CC3CC(CC(C3)C1)C2 | -0.711 |
| COc1cc(OC)cc(C(=O)Nc2cccc(-c3nc4ccccc4o3)c2)c1 | 1.92 |
| Cc1ccccc1-c1nnnn1C1CC(=O)C2OCC1O2 (stereo not shown) | 1.03 |
| CCCOc1ccc(N2C(=O)CC(N3CCCC3)C2=O)cc1 (stereo not shown) | 0.983 |
| Cc1ccc(NC(=O)c2ccc(-c3ccccc3)cc2)cc1F | 1.04 |
| CCc1ccccc1NC(=O)CSC1=C(C#N)C(c2ccco2)C(C(=O)Nc2ccccc2)=C(C)N1 (stereo not shown) | -7.4 |
| COc1ccc(C(=O)Nc2ccccc2OC)cc1Br | 4 |
| COc1ccc(CC(=N)NOC(=O)c2ccccc2Cl)cc1 | 5.23 |
| Cc1ccc(-n2c(C)cc(/C=C3/C(=N)N4C=CSC4=NC3=O)c2C)cc1Cl | 2.25 |
| CCOc1ccc(N2C(=O)C3C(c4ccccc4)OC4(C(=O)c5ccccc5C4=O)C3C2=O)cc1 (stereo not shown) | -1.24 |
| CCOCCCNC(=O)Cc1ccc(F)cc1 | 7.98 |
| O=C(c1cc(-c2ccc(Cl)cc2)n[nH]1)N1CCC(N2CCCCC2)CC1 | 2.28 |
| CCCOC(=O)c1cccc(-c2ccc(/C=C3/C(=O)N(CCC)C(=O)C(C#N)=C3C)o2)c1 | 2.56 |
| Cc1ccc2cnn(CCCC(=O)NCc3cccs3)c2c1 | -2.88 |
| Cc1ccc(F)cc1NC(=O)CSc1nc(N)cc(N)n1 | -2.46 |
| COc1ccc(Cl)cc1S(=O)(=O)Nc1noc2ccccc12 | 2.19 |
| O=C(O)COc1ccccc1C1OC2CCCCC2C2=CCCCC21 (stereo not shown) | 2.94 |
| CC(C)N1C(=O)S/C(=C/c2ccc(C#N)cc2)C1=O | 3.49 |
